The supplement of paper PMC8728848
The other results are listed elsewhere or left out.

Experiments:
Experiment in all cases: glycan array binding signal (z-score within array); higher = stronger binding
Conditions in all cases: glycan notation: IUPAC condensed, linker removed
[1] = biological target: Neu5Ac(a2-3)Gal(b1-4)GlcNAc6S
Method in brief: (§1)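 The Consortium for Functional Glycomics database supplied 3228 glycan arrays, of which those lacking an available protein sequence were dropped. The binding signal, a within-array Z-score, was averaged across arrays of the same protein sequence and across linkers. Negative scores can be read as non-binding.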

[2] = biological target: Neu5Ac(a2-3)Gal(b1-4)[Fuc(a1-3)]GlcNAc
Method in brief: as §1

[3] = biological target: Neu5Ac(a2-3)Gal(b1-4)[Fuc(a1-3)]GlcNAc(b1-3)Gal
Method in brief: as §1

[4] = biological target: Neu5Ac(a2-3)Gal(b1-4)[Fuc(a1-3)]GlcNAc(b1-3)Gal(b1-4)GlcNAc
Method in brief: as §1

[5] = biological target: Neu5Ac(a2-3)Gal(b1-4)[Fuc(a1-3)]GlcNAc(b1-3)Gal(b1-4)[Fuc(a1-3)]GlcNAc(b1-3)Gal(b1-4)[Fuc(a1-3)]GlcNAc
Method in brief: as §1

[6] = biological target: Neu5Ac(a2-3)Gal(b1-4)[Fuc(a1-3)]GlcNAc6S
Method in brief: as §1

[7] = biological target: Neu5Ac(a2-3)Gal6S(b1-4)GlcNAc
Method in brief: as §1

[8] = biological target: Neu5Ac(a2-3)Gal6S(b1-4)[Fuc(a1-3)]GlcNAc
Method in brief: as §1

Neu5Ac(a2-3)GalNAc = biological target: Neu5Ac(a2-3)GalNAc
Method in brief: as §1

[9] = biological target: Neu5Ac(a2-3)GalNAc(b1-4)GlcNAc
Method in brief: as §1

[10] = biological target: Neu5Ac(a2-3)[GalNAc(b1-4)]Gal(b1-4)Glc
Method in brief: as §1

[11] = biological target: Neu5Ac(a2-3)[GalNAc(b1-4)]Gal(b1-4)GlcNAc
Method in brief: as §1

[12] = biological target: Neu5Ac(a2-3)[Neu5Ac(a2-6)]GalNAc
Method in brief: as §1

Neu5Ac(a2-6)Gal = biological target: Neu5Ac(a2-6)Gal
Method in brief: as §1

Neu5Ac(a2-6)Gal(b1-4)Glc = biological target: Neu5Ac(a2-6)Gal(b1-4)Glc
Method in brief: as §1

[13] = biological target: Neu5Ac(a2-6)Gal(b1-4)GlcNAc
Method in brief: as §1

[14] = biological target: Neu5Ac(a2-6)Gal(b1-4)GlcNAc(b1-3)Gal(b1-4)GlcNAc
Method in brief: as §1

[15] = biological target: Neu5Ac(a2-6)Gal(b1-4)GlcNAc(b1-3)Gal(b1-4)[Fuc(a1-3)]GlcNAc(b1-3)Gal(b1-4)[Fuc(a1-3)]GlcNAc
Method in brief: as §1

[16] = biological target: Neu5Ac(a2-6)Gal(b1-4)GlcNAc6S
Method in brief: as §1

Neu5Ac(a2-6)GalNAc = biological target: Neu5Ac(a2-6)GalNAc
Method in brief: as §1

[17] = biological target: Neu5Ac(a2-6)GalNAc(b1-4)GlcNAc
Method in brief: as §1

Neu5Ac(a2-8)Neu5Ac = biological target: Neu5Ac(a2-8)Neu5Ac
Method in brief: as §1

[18] = biological target: Neu5Ac(a2-8)Neu5Ac(a2-3)Gal(b1-4)Glc
Method in brief: as §1

[19] = biological target: Neu5Ac(a2-8)Neu5Ac(a2-3)[GalNAc(b1-4)]Gal(b1-4)Glc
Method in brief: as §1

[20] = biological target: Neu5Ac(a2-8)Neu5Ac(a2-8)Neu5Ac
Method in brief: as §1

[21] = biological target: Neu5Ac(a2-8)Neu5Ac(a2-8)Neu5Ac(a2-3)Gal(b1-4)Glc
Method in brief: as §1

[22] = biological target: Neu5Ac(a2-8)Neu5Ac(a2-8)Neu5Ac(a2-3)[GalNAc(b1-4)]Gal(b1-4)Glc
Method in brief: as §1

[23] = biological target: Neu5Ac(a2-8)Neu5Ac(a2-8)Neu5Ac(a2-8)Neu5Ac(a2-3)[GalNAc(b1-4)]Gal(b1-4)Glc
Method in brief: as §1

Neu5Ac(b1-6)GalNAc = biological target: Neu5Ac(b1-6)GalNAc
Method in brief: as §1

[24] = biological target: Neu5Ac(b2-6)Gal(b1-4)GlcNAc
Method in brief: as §1

[25] = biological target: Neu5Ac9Ac(a2-6)Gal(b1-4)GlcNAc
Method in brief: as §1

[26] = biological target: Neu5Gc(a2-3)Gal(b1-3)GlcNAc
Method in brief: as §1

[27] = biological target: Neu5Gc(a2-3)Gal(b1-3)[Fuc(a1-4)]GlcNAc
Method in brief: as §1

Neu5Gc(a2-3)Gal(b1-4)Glc = biological target: Neu5Gc(a2-3)Gal(b1-4)Glc
Method in brief: as §1

[28] = biological target: Neu5Gc(a2-3)Gal(b1-4)GlcNAc
Method in brief: as §1

[29] = biological target: Neu5Gc(a2-3)Gal(b1-4)[Fuc(a1-3)]GlcNAc
Method in brief: as §1

[30] = biological target: Neu5Gc(a2-6)Gal(b1-4)GlcNAc
Method in brief: as §1

Neu5Gc(a2-6)GalNAc = biological target: Neu5Gc(a2-6)GalNAc
Method in brief: as §1

B1: RS-IIL (Ralstonia solanacearum) (protein)
chain: AQQGVFTLPANTSFGVTAFANAANTQTIQVLVDNVVKATFTGSGTSDKLLGSQVLNSGSGAIKIQVSVNGKPSDLVSNQTILANKLNFAMVGSEDGTDNDYNDGIAVLNWPLG
[1]
  glycan array binding signal (z-score): -0.38
[2]
  glycan array binding signal (z-score): -0.276
[3]
  glycan array binding signal (z-score): -0.263
[4]
  glycan array binding signal (z-score): -0.268
[5]
  glycan array binding signal (z-score): 0.025
[6]
  glycan array binding signal (z-score): -0.294
[7]
  glycan array binding signal (z-score): -0.327
[8]
  glycan array binding signal (z-score): -0.312
Neu5Ac(a2-3)GalNAc
  glycan array binding signal (z-score): -0.389
[9]
  glycan array binding signal (z-score): -0.389
[10]
  glycan array binding signal (z-score): -0.389
[11]
  glycan array binding signal (z-score): -0.381
[12]
  glycan array binding signal (z-score): -0.389
Neu5Ac(a2-6)Gal
  glycan array binding signal (z-score): -0.334
Neu5Ac(a2-6)Gal(b1-4)Glc
  glycan array binding signal (z-score): -0.386
[13]
  glycan array binding signal (z-score): -0.385
[14]
  glycan array binding signal (z-score): -0.389
[15]
  glycan array binding signal (z-score): 0.065
[16]
  glycan array binding signal (z-score): -0.389
Neu5Ac(a2-6)GalNAc
  glycan array binding signal (z-score): -0.388
[17]
  glycan array binding signal (z-score): -0.389
Neu5Ac(a2-8)Neu5Ac
  glycan array binding signal (z-score): -0.388
[18]
  glycan array binding signal (z-score): -0.377
[19]
  glycan array binding signal (z-score): -0.384
[20]
  glycan array binding signal (z-score): -0.375
[21]
  glycan array binding signal (z-score): -0.389
[22]
  glycan array binding signal (z-score): -0.368
[23]
  glycan array binding signal (z-score): -0.367
Neu5Ac(b1-6)GalNAc
  glycan array binding signal (z-score): -0.389
[24]
  glycan array binding signal (z-score): -0.388
[25]
  glycan array binding signal (z-score): -0.383
[26]
  glycan array binding signal (z-score): -0.388
[27]
  glycan array binding signal (z-score): 0.4
Neu5Gc(a2-3)Gal(b1-4)Glc
  glycan array binding signal (z-score): -0.385
[28]
  glycan array binding signal (z-score): -0.388
[29]
  glycan array binding signal (z-score): -0.319
[30]
  glycan array binding signal (z-score): -0.388
Neu5Gc(a2-6)GalNAc
  glycan array binding signal (z-score): -0.389
